In the supplement of paper PMC4723716:
± gives the uncertainty stated by the source. In all, about 9,900 compounds were measured (“viability index relative to DMSO control”: median about 1, lowest 2% from about 0.85 on). This is one part of the list.

System: Plasmodium falciparum NF54 stage V gametocytes
Assay: viability index relative to DMSO control (fraction); higher = less gametocyte killing
Details: 2.5 µM, library set: Broad Institute DOS, incubation time: 72 h
How it was run: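 Gametocytes (P. falciparum NF54, stage V) were treated with compound at 2.5 µM for 72 hr at 37°C in low oxygen, in serum-free medium at 0.75% gametocytemia and 1.25% hematocrit. Counts of 20–70 µm2 red particles, taken from one field per well after MitoTracker Red CMXRos with saponin, were divided by the plate mean of solvent-only wells. This ratio is the viability index.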

SMILES | viability index
C[C@H](CO)N1C[C@H](C)[C@@H](CN(C)Cc2ccccc2)Oc2c(NC(=O)Cc3cn(C)c4ccccc34)cccc2C1=O | 0.744 ± 0.038
C[C@H](CO)N1C[C@H](C)[C@@H](CN(C)C(=O)NC2CCCCC2)OCCCC[C@H](C)Oc2ccc(N(C)C)cc2C1=O | 1.06 ± 0.013
O=C(Nc1ccc(F)cc1)N1CC(=O)N2[C@H](CO)[C@@H](c3ccc(C4=CCCC4)cc3)[C@H]2C1 | 1.05 ± 0.02
C[C@H](CO)N1C[C@H](C)[C@@H](CN(C)Cc2ccc(C(=O)Nc3ccccc3N)cc2)OCc2cnnn2CCCC1=O | 0.997 ± 0.034
CCCN1[C@@H]2c3ccc(-c4cccc(OC)c4)c(=O)n3C[C@@H]2[C@@H](CO)[C@@H]1C(=O)OC | 1.02 ± 0.087
COc1ccc2c3c([nH]c2c1)[C@@H](CO)N(Cc1ccccn1)C[C@]31CN(C1)C(=O)CC1CC1 | 0.958 ± 0.032
O=C(NCC[C@H]1CC[C@H](NS(=O)(=O)c2ccc(F)cc2)[C@H](CO)O1)c1ccc2c(c1)OCO2 | 0.931 ± 0.07
C[C@@H]1CCCCO[C@@H](CN(C)S(C)(=O)=O)[C@@H](C)CN([C@H](C)CO)C(=O)c2cc(NC(=O)NC3CCCCC3)ccc2O1 | 1.1 ± 0.019
CCC(=O)N1[C@H](CO)[C@@H](c2ccccc2)C12CN(C(=O)c1ccc3c(c1)OCO3)C2 | 1.08 ± 0.056
CNC(=O)C[C@@H]1CC[C@H]2[C@@H](COC[C@@H](O)CN2Cc2ccccc2F)O1 | 1.11 ± 0.029
Cc1ccccc1S(=O)(=O)N1C[C@@H]2N[C@H](C1)[C@@H]2c1ccc(/C=C/c2ccccc2)cc1 | 0.771 ± 0.028
COCCNC(=O)[C@@H]1[C@@H](CO)[C@@H]2Cn3c(cccc3=O)[C@H]1N2Cc1cccc(Cl)c1 | 1.052 ± 0.01
COc1ccc(S(=O)(=O)Nc2ccc3c(c2)CC(=O)N([C@@H](C)CO)C[C@H](C)[C@@H](CN(C)C(=O)Nc2c(C)noc2C)O3)cc1 | 1.032 ± 0.0071
CN1C(=O)c2cc(NC(=O)c3cnccn3)ccc2OC[C@@H]2O[C@H](CC(=O)N[C@H]3CCN(Cc4ccccc4)C3)CC[C@H]21 | 1.12 ± 0.092
C[C@@H]1CN([C@@H](C)CO)C(=O)c2cc(NC(=O)C3CC3)ccc2O[C@@H]1CN(C)S(=O)(=O)c1ccccc1 | 1.01 ± 0.04
CCCNC(=O)N1C[C@@H](O)COC[C@H]2O[C@@H](CC(=O)OC)CC[C@@H]21 | 1.14 ± 0.053
CO[C@H]1CC[C@H]2CCN(C)C(=O)[C@H](C)CN(C)C(=O)c3cc(C#N)ccc3OC[C@H]1O2 | 1.03 ± 0.05
O=C(NCC[C@@H]1CC[C@@H](NC(=O)C2CCOCC2)[C@H](CO)O1)c1cc(Cl)cc(Cl)c1 | 0.964 ± 0.1
O=C(c1cccc(F)c1)N1CCCCN2[C@@H](CO)[C@H](c3ccc(C#CC4(O)CCCC4)cc3)[C@@H]2C1 | 1.07 ± 0.054
